Substrate in test [1]: T1, PSF (endogenous, JSL1 nuclear extract) (human (endogenous in JSL1 Jurkat cells)) (UniProt P23246)
T1 sequence: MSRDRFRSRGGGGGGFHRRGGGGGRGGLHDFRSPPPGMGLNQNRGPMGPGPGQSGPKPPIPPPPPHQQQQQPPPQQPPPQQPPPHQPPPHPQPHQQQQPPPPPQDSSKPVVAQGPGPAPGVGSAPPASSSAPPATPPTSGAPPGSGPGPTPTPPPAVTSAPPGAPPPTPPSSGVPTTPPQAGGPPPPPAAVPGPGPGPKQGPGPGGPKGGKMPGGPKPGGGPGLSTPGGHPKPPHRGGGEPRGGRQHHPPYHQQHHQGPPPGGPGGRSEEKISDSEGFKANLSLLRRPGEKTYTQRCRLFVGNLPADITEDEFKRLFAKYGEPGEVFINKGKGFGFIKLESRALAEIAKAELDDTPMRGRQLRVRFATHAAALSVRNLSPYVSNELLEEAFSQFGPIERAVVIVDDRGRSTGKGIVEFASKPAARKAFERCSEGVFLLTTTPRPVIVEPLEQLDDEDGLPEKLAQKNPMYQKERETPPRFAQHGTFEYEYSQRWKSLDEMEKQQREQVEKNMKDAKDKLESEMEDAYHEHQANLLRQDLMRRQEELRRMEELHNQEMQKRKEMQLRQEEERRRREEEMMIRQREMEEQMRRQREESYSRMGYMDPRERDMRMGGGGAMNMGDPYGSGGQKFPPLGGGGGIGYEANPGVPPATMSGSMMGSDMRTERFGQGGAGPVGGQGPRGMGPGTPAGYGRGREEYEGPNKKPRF
Put plainly: co-IP; IP with PSF antibody from RNase-treated nuclear extract of JSL1 cells, unstimulated or stimulated with PMA; protein G Dynabeads; western blot. On the technique in general: Immunoblotting shows a protein as a band on a membrane.

Test [2] concerns the target T2, FLAG-PSF ΔRRMs (stably expressed in JSL1 cells) (UniProt P23246).
T2 sequence: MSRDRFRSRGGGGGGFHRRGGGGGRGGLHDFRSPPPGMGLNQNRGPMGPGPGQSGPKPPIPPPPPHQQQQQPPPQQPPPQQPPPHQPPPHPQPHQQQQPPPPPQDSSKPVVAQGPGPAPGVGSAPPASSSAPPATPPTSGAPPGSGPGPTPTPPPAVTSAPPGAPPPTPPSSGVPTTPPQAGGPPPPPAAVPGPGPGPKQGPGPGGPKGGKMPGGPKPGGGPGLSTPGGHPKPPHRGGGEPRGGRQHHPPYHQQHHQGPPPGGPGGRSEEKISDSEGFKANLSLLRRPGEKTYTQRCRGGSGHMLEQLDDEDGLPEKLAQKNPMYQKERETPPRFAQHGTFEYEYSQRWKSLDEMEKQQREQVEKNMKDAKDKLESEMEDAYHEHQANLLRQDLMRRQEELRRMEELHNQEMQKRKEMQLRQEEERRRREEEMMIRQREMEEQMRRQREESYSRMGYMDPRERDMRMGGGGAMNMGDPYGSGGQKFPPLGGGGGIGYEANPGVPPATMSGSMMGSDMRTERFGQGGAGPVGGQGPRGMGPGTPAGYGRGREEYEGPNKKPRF
Briefly: co-IP; anti-FLAG IP from nuclear extract (pretreated with RNase A and RNase T1) of JSL1 cells stably expressing FLAG-PSF WT or mutants; protein G Dynabeads; washes with IP buffer supplemented with 200 mM NaCl; western blot for endogenous TRAP150.

The target of test [3] is T3, FLAG-PSF WT (full length PSF, FLAG-tagged, stably expressed in JSL1 cells) (UniProt P23246).
T3 sequence: T1 sequence
The description is as above.

The target in another test is T4, GST-TRAP266–596 (UniProt Q9Y2W1).
T4 sequence: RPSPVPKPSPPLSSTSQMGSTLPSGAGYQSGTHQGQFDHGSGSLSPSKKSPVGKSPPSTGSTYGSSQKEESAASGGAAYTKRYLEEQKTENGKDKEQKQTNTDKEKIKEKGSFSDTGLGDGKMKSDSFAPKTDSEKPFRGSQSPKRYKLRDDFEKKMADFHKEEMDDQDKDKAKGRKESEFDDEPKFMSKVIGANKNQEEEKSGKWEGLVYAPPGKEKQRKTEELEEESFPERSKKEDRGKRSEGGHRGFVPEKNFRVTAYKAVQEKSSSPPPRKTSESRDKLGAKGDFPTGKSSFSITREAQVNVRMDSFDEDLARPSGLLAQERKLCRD
Briefly: pull-down; 40 ug GST-tagged bait on glutathione sepharose 4B beads; prey incubated 1.5 h at 4°C in PBS; washes with PBS supplemented with 300 mM NaCl; western blot; both purified.

These are yes or no findings as the source states them, for the method shown. For some of these results: In cells and extracts the contact can be indirect. Some binding calls cover weakened binding; strength is not graded here. For some of these results: Sequences can lack the tags named with a protein.

Drawing on paper PMC4605305, “TRAP150 interacts with the RNA-binding domain of PSF and antagonizes splicing of numerous PSF-target genes in T cells” (Nucleic Acids Research, 2015), this text covers binding for two molecules.

B1: TRAP150 (endogenous, JSL1 nuclear extract) (protein, UniProt Q9Y2W1 1-955)
chain: MSKTNKSKSGSRSSRSRSASRSRSRSFSKSRSRSRSLSRSRKRRLSSRSRSRSYSPAHNRERNHPRVYQNRDFRGHNRGYRRPYYFRGRNRGFYPWGQYNRGGYGNYRSNWQNYRQAYSPRRGRSRSRSPKRRSPSPRSRSHSRNSDKSSSDRSRRSSSSRSSSNHSRVESSKRKSAKEKKSSSKDSRPSQAAGDNQGDEAKEQTFSGGTSQDTKASESSKPWPDATYGTGSASRASAVSELSPRERSPALKSPLQSVVVRRRSPRPSPVPKPSPPLSSTSQMGSTLPSGAGYQSGTHQGQFDHGSGSLSPSKKSPVGKSPPSTGSTYGSSQKEESAASGGAAYTKRYLEEQKTENGKDKEQKQTNTDKEKIKEKGSFSDTGLGDGKMKSDSFAPKTDSEKPFRGSQSPKRYKLRDDFEKKMADFHKEEMDDQDKDKAKGRKESEFDDEPKFMSKVIGANKNQEEEKSGKWEGLVYAPPGKEKQRKTEELEEESFPERSKKEDRGKRSEGGHRGFVPEKNFRVTAYKAVQEKSSSPPPRKTSESRDKLGAKGDFPTGKSSFSITREAQVNVRMDSFDEDLARPSGLLAQERKLCRDLVHSNKKEQEFRSIFQHIQSAQSQRSPSELFAQHIVTIVHHVKEHHFGSSGMTLHERFTKYLKRGTEQEAAKNKKSPEIHRRIDISPSTFRKHGLAHDEMKSPREPGYKAEGKYKDDPVDLRLDIERRKKHKERDLKRGKSRESVDSRDSSHSRERSAEKTEKTHKGSKKQKKHRRARDRSRSSSSSSQSSHSYKAEEYTEETEEREESTTGFDKSRLGTKDFVGPSERGGGRARGTFQFRARGRGWGRGNYSGNNNNNSNNDFQKRNREEEWDPEYTPKSKKYYLHDDREGEGSDKWVSRGRGRGAFPRGRGRFMFRKSSTSPKWAHDKFSGEEGEIEDDESGTENREEKDNIQPTTE
As for B1, the results for the binding entry in test [1], in test [2] and in test [3] were “binds”, “no binding” and “binds”, respectively.

B2: HisFLAG-PSF exRRMs (266-484) (domain or fragment, UniProt P23246 266-484, looked up)
chain: GRSEEKISDSEGFKANLSLLRRPGEKTYTQRCRLFVGNLPADITEDEFKRLFAKYGEPGEVFINKGKGFGFIKLESRALAEIAKAELDDTPMRGRQLRVRFATHAAALSVRNLSPYVSNELLEEAFSQFGPIERAVVIVDDRGRSTGKGIVEFASKPAARKAFERCSEGVFLLTTTPRPVIVEPLEQLDDEDGLPEKLAQKNPMYQKERETPPRFAQHG
notes: also called HisFLAG-exRRMs; HFexRRM1+2; source: E. coli Rosetta(DE3)pLysS, purified (Ni-NTA, SEC); not shown: His6, N-terminal, kept; FLAG, N-terminal, kept
For B2, the binding entry with GST-TRAP266–596 is on record as “no binding”.
